# Some of the results follow.
# Target: T1, MBP-FoxP1dN (Mus musculus, UniProt P58462 326-579)
# T1 sequence: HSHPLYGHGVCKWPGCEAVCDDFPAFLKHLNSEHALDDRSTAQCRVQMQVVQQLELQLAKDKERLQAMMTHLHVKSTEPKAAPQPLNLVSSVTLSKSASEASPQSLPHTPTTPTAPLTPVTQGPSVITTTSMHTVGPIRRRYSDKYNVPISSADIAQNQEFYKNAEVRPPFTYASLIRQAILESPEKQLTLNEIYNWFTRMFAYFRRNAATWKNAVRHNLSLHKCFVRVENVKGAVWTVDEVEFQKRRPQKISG
# Test: PD-seq (MBP pull-down with sequencing); 20 mM Tris-HCl pH 7.5, 100 mM NaCl, 1.5 mM MgCl2, 0.4 uM protein, 0.1 uM dsDNA library, 30 min, room temperature, amylose pull-down; high values mean tight binding
# Details: protein: recombinant; tags: His6-MBP; chain copies: 2; dsDNA, one strand shown
# Summary of the method: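 A degenerate double-stranded DNA library, filled in with Klenow, was added at 0.1 µM to 0.4 µM His6-MBP-tagged mouse FoxP3 or FoxP1 fragment lacking the N-terminus, expressed in E. coli. Incubation lasted 30 min at room temperature in Tris pH 7.5 buffer with NaCl and MgCl2, after which complexes were collected on amylose resin, washed three times, digested with proteinase K to free the DNA, barcoded by PCR and sequenced by Illumina. Binding is the pooled-replicate reads-per-million enrichment of pull-down over input.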
row,Sequence,binding signal
1,GATGATTGTTCTCCCAGCTGATGAATTTCAACGGTCGAGTAAACAAATTTTCCTAATCTTTCTGTTCAAGCGCCATCTAC,0.82 RPM ratio (pull-down/input)
2,GATGATTGTTCTCCCAGCTGATGAATTGGAGTGATCGAGTAAACAAATTTTCCTAATCTTTCTGTTCAAGCGCCATCTAC,0.888 RPM ratio (pull-down/input)
3,GATGATTGTTCTCCCAGCTGATGAATTGAATAGGTCGAGTAAACAAATTTTCCTAATCTTTCTGTTCAAGCGCCATCTAC,0.931 RPM ratio (pull-down/input)
4,GATGATTGTTCTCCCAGCTGATGAATTTCTACCATCGAGTAAACAAATTTTCCTAATCTTTCTGTTCAAGCGCCATCTAC,0.994 RPM ratio (pull-down/input)
5,GATGATTGTTCTCCCAGCTGATGAATTATGGTTCTCGAGTAAACAAATTTTCCTAATCTTTCTGTTCAAGCGCCATCTAC,0.943 RPM ratio (pull-down/input)
6,GATGATTGTTCTCCCAGCTGATGAATTGAGACGGTCGAGTAAACAAATTTTCCTAATCTTTCTGTTCAAGCGCCATCTAC,0.782 RPM ratio (pull-down/input)
7,GATGATTGTTCTCCCAGCTGATGAATTTAATCGGTCGAGTAAACAAATTTTCCTAATCTTTCTGTTCAAGCGCCATCTAC,0.85 RPM ratio (pull-down/input)
8,GATGATTGTTCTCCCAGCTGATGAATTGCAGTACTCGAGTAAACAAATTTTCCTAATCTTTCTGTTCAAGCGCCATCTAC,1.04 RPM ratio (pull-down/input)
9,GATGATTGTTCTCCCAGCTGATGAATTAACAAGTTCGAGTAAACAAATTTTCCTAATCTTTCTGTTCAAGCGCCATCTAC,1.13 RPM ratio (pull-down/input)
10,GATGATTGTTCTCCCAGCTGATGAATTTTCGAGGTCGAGTAAACAAATTTTCCTAATCTTTCTGTTCAAGCGCCATCTAC,0.866 RPM ratio (pull-down/input)
11,GATGATTGTTCTCCCAGCTGATGAATTAGAATCATCGAGTAAACAAATTTTCCTAATCTTTCTGTTCAAGCGCCATCTAC,1.05 RPM ratio (pull-down/input)
12,GATGATTGTTCTCCCAGCTGATGAATTTGCCACGTCGAGTAAACAAATTTTCCTAATCTTTCTGTTCAAGCGCCATCTAC,0.932 RPM ratio (pull-down/input)
13,GATGATTGTTCTCCCAGCTGATGAATTTGTTGACTCGAGTAAACAAATTTTCCTAATCTTTCTGTTCAAGCGCCATCTAC,2.35 RPM ratio (pull-down/input)
14,GATGATTGTTCTCCCAGCTGATGAATTACACGGATCGAGTAAACAAATTTTCCTAATCTTTCTGTTCAAGCGCCATCTAC,0.998 RPM ratio (pull-down/input)
15,GATGATTGTTCTCCCAGCTGATGAATTCGATGTCTCGAGTAAACAAATTTTCCTAATCTTTCTGTTCAAGCGCCATCTAC,0.94 RPM ratio (pull-down/input)
16,GATGATTGTTCTCCCAGCTGATGAATTCTGCGATTCGAGTAAACAAATTTTCCTAATCTTTCTGTTCAAGCGCCATCTAC,0.856 RPM ratio (pull-down/input)
17,GATGATTGTTCTCCCAGCTGATGAATTGGCGCAATCGAGTAAACAAATTTTCCTAATCTTTCTGTTCAAGCGCCATCTAC,1.2 RPM ratio (pull-down/input)
18,GATGATTGTTCTCCCAGCTGATGAATTGTGATCCTCGAGTAAACAAATTTTCCTAATCTTTCTGTTCAAGCGCCATCTAC,1.12 RPM ratio (pull-down/input)
19,GATGATTGTTCTCCCAGCTGATGAATTATATCAGTCGAGTAAACAAATTTTCCTAATCTTTCTGTTCAAGCGCCATCTAC,0.952 RPM ratio (pull-down/input)
20,GATGATTGTTCTCCCAGCTGATGAATTATTGGAATCGAGTAAACAAATTTTCCTAATCTTTCTGTTCAAGCGCCATCTAC,1.05 RPM ratio (pull-down/input)
21,GATGATTGTTCTCCCAGCTGATGAATTGGATCCGTCGAGTAAACAAATTTTCCTAATCTTTCTGTTCAAGCGCCATCTAC,0.821 RPM ratio (pull-down/input)

row,Sequence,binding signal
1,GATGATTGTTCTCCCAGCTGATGAATTGCTCTAGTCGAGTAAACAAATTTTCCTAATCTTTCTGTTCAAGCGCCATCTAC,0.974 RPM ratio (pull-down/input)
2,GATGATTGTTCTCCCAGCTGATGAATTGCTAAACTCGAGTAAACAAATTTTCCTAATCTTTCTGTTCAAGCGCCATCTAC,1.11 RPM ratio (pull-down/input)
3,GATGATTGTTCTCCCAGCTGATGAATTTGACCGGTCGAGTAAACAAATTTTCCTAATCTTTCTGTTCAAGCGCCATCTAC,0.726 RPM ratio (pull-down/input)
4,GATGATTGTTCTCCCAGCTGATGAATTACTGCAGTCGAGTAAACAAATTTTCCTAATCTTTCTGTTCAAGCGCCATCTAC,1 RPM ratio (pull-down/input)
5,GATGATTGTTCTCCCAGCTGATGAATTTGTTGCTTCGAGTAAACAAATTTTCCTAATCTTTCTGTTCAAGCGCCATCTAC,1.54 RPM ratio (pull-down/input)
6,GATGATTGTTCTCCCAGCTGATGAATTACTCTAATCGAGTAAACAAATTTTCCTAATCTTTCTGTTCAAGCGCCATCTAC,1.17 RPM ratio (pull-down/input)
7,GATGATTGTTCTCCCAGCTGATGAATTGGCCAATTCGAGTAAACAAATTTTCCTAATCTTTCTGTTCAAGCGCCATCTAC,0.88 RPM ratio (pull-down/input)
8,GATGATTGTTCTCCCAGCTGATGAATTTTGATGGTCGAGTAAACAAATTTTCCTAATCTTTCTGTTCAAGCGCCATCTAC,1.04 RPM ratio (pull-down/input)
9,GATGATTGTTCTCCCAGCTGATGAATTTATCTTCTCGAGTAAACAAATTTTCCTAATCTTTCTGTTCAAGCGCCATCTAC,1.08 RPM ratio (pull-down/input)
10,GATGATTGTTCTCCCAGCTGATGAATTACATGTATCGAGTAAACAAATTTTCCTAATCTTTCTGTTCAAGCGCCATCTAC,1.41 RPM ratio (pull-down/input)
11,GATGATTGTTCTCCCAGCTGATGAATTGAATTAGTCGAGTAAACAAATTTTCCTAATCTTTCTGTTCAAGCGCCATCTAC,0.836 RPM ratio (pull-down/input)
12,GATGATTGTTCTCCCAGCTGATGAATTGGACGACTCGAGTAAACAAATTTTCCTAATCTTTCTGTTCAAGCGCCATCTAC,0.788 RPM ratio (pull-down/input)
13,GATGATTGTTCTCCCAGCTGATGAATTCGGTATATCGAGTAAACAAATTTTCCTAATCTTTCTGTTCAAGCGCCATCTAC,1.09 RPM ratio (pull-down/input)
14,GATGATTGTTCTCCCAGCTGATGAATTAGGTGAATCGAGTAAACAAATTTTCCTAATCTTTCTGTTCAAGCGCCATCTAC,0.999 RPM ratio (pull-down/input)
15,GATGATTGTTCTCCCAGCTGATGAATTACCTGGTTCGAGTAAACAAATTTTCCTAATCTTTCTGTTCAAGCGCCATCTAC,0.928 RPM ratio (pull-down/input)
16,GATGATTGTTCTCCCAGCTGATGAATTCCTTGGGTCGAGTAAACAAATTTTCCTAATCTTTCTGTTCAAGCGCCATCTAC,0.74 RPM ratio (pull-down/input)
17,GATGATTGTTCTCCCAGCTGATGAATTAGGTATGTCGAGTAAACAAATTTTCCTAATCTTTCTGTTCAAGCGCCATCTAC,0.967 RPM ratio (pull-down/input)
18,GATGATTGTTCTCCCAGCTGATGAATTCAGAAGATCGAGTAAACAAATTTTCCTAATCTTTCTGTTCAAGCGCCATCTAC,0.738 RPM ratio (pull-down/input)
19,GATGATTGTTCTCCCAGCTGATGAATTGGTGTAGTCGAGTAAACAAATTTTCCTAATCTTTCTGTTCAAGCGCCATCTAC,1.1 RPM ratio (pull-down/input)
20,GATGATTGTTCTCCCAGCTGATGAATTCATTCTCTCGAGTAAACAAATTTTCCTAATCTTTCTGTTCAAGCGCCATCTAC,0.797 RPM ratio (pull-down/input)
21,GATGATTGTTCTCCCAGCTGATGAATTCCAAGATTCGAGTAAACAAATTTTCCTAATCTTTCTGTTCAAGCGCCATCTAC,0.954 RPM ratio (pull-down/input)

row,Sequence,binding signal
1,GATGATTGTTCTCCCAGCTGATGAATTGTGAGGATCGAGTAAACAAATTTTCCTAATCTTTCTGTTCAAGCGCCATCTAC,0.92 RPM ratio (pull-down/input)
2,GATGATTGTTCTCCCAGCTGATGAATTCTTACAATCGAGTAAACAAATTTTCCTAATCTTTCTGTTCAAGCGCCATCTAC,1.13 RPM ratio (pull-down/input)
3,GATGATTGTTCTCCCAGCTGATGAATTGACACCATCGAGTAAACAAATTTTCCTAATCTTTCTGTTCAAGCGCCATCTAC,1.24 RPM ratio (pull-down/input)
4,GATGATTGTTCTCCCAGCTGATGAATTAGTCTATTCGAGTAAACAAATTTTCCTAATCTTTCTGTTCAAGCGCCATCTAC,0.914 RPM ratio (pull-down/input)
5,GATGATTGTTCTCCCAGCTGATGAATTCCCGTCGTCGAGTAAACAAATTTTCCTAATCTTTCTGTTCAAGCGCCATCTAC,0.775 RPM ratio (pull-down/input)
6,GATGATTGTTCTCCCAGCTGATGAATTCGATTGCTCGAGTAAACAAATTTTCCTAATCTTTCTGTTCAAGCGCCATCTAC,0.842 RPM ratio (pull-down/input)
7,GATGATTGTTCTCCCAGCTGATGAATTGTGCTTCTCGAGTAAACAAATTTTCCTAATCTTTCTGTTCAAGCGCCATCTAC,1.04 RPM ratio (pull-down/input)
8,GATGATTGTTCTCCCAGCTGATGAATTTAAGACTTCGAGTAAACAAATTTTCCTAATCTTTCTGTTCAAGCGCCATCTAC,0.81 RPM ratio (pull-down/input)
9,GATGATTGTTCTCCCAGCTGATGAATTCGTTATTTCGAGTAAACAAATTTTCCTAATCTTTCTGTTCAAGCGCCATCTAC,1.14 RPM ratio (pull-down/input)
10,GATGATTGTTCTCCCAGCTGATGAATTAGTCTGTTCGAGTAAACAAATTTTCCTAATCTTTCTGTTCAAGCGCCATCTAC,0.901 RPM ratio (pull-down/input)
11,GATGATTGTTCTCCCAGCTGATGAATTGCTGTGATCGAGTAAACAAATTTTCCTAATCTTTCTGTTCAAGCGCCATCTAC,1.12 RPM ratio (pull-down/input)
12,GATGATTGTTCTCCCAGCTGATGAATTGCGCGGTTCGAGTAAACAAATTTTCCTAATCTTTCTGTTCAAGCGCCATCTAC,1.07 RPM ratio (pull-down/input)
13,GATGATTGTTCTCCCAGCTGATGAATTTCCCGACTCGAGTAAACAAATTTTCCTAATCTTTCTGTTCAAGCGCCATCTAC,0.776 RPM ratio (pull-down/input)
14,GATGATTGTTCTCCCAGCTGATGAATTAACTCATTCGAGTAAACAAATTTTCCTAATCTTTCTGTTCAAGCGCCATCTAC,0.93 RPM ratio (pull-down/input)
15,GATGATTGTTCTCCCAGCTGATGAATTGGATTTATCGAGTAAACAAATTTTCCTAATCTTTCTGTTCAAGCGCCATCTAC,1.1 RPM ratio (pull-down/input)
16,GATGATTGTTCTCCCAGCTGATGAATTACAGATCTCGAGTAAACAAATTTTCCTAATCTTTCTGTTCAAGCGCCATCTAC,1.14 RPM ratio (pull-down/input)
17,GATGATTGTTCTCCCAGCTGATGAATTCTTACATTCGAGTAAACAAATTTTCCTAATCTTTCTGTTCAAGCGCCATCTAC,0.965 RPM ratio (pull-down/input)
18,GATGATTGTTCTCCCAGCTGATGAATTGATTACATCGAGTAAACAAATTTTCCTAATCTTTCTGTTCAAGCGCCATCTAC,1.58 RPM ratio (pull-down/input)
19,GATGATTGTTCTCCCAGCTGATGAATTCCTGTTTTCGAGTAAACAAATTTTCCTAATCTTTCTGTTCAAGCGCCATCTAC,2.04 RPM ratio (pull-down/input)
20,GATGATTGTTCTCCCAGCTGATGAATTGGGTTAGTCGAGTAAACAAATTTTCCTAATCTTTCTGTTCAAGCGCCATCTAC,0.802 RPM ratio (pull-down/input)
21,GATGATTGTTCTCCCAGCTGATGAATTGGCTCTATCGAGTAAACAAATTTTCCTAATCTTTCTGTTCAAGCGCCATCTAC,0.905 RPM ratio (pull-down/input)

# — PMC12820563, “FoxP3 forms a head-to-head dimer in vivo and stabilizes its multimerization on adjacent microsatellites”
